# Experimental data reported in PubChem BioAssay AID2675 (National Center for Advancing Translational Sciences (NCATS), 2010).
# Hit rate of the full screen: of about 280,000 compounds, about 100 (0.036%) were called active. The shares of active, inactive and inconclusive entries below differ from those in the screen. Calls come from the whole dose curve; as a rule, active = well fitted inhibition curve with a large enough effect in the signal ratio, with a control signal flat (not every such curve was filed as active); inconclusive = small, poorly fitted or top-dose-only effect, or effect the other way, or a change in a side signal; inactive = no such curve, though single readings can be large or run the other way; the % refers to the signal ratio. Potencies beside an inconclusive call are fits to weak or partial responses and may not hold up. A note “side channel” means that the fit belongs to a control or component signal, not to the main read-out.
# Target: Muscleblind-like protein 1 (Homo sapiens) (UniProt Q9NR56)
# Assay: qHTS Assay for Inhibitors of MBNL1-poly(CUG) RNA binding
# Conditions: TR-FRET MBNL1-His/biotin-(CUG)12 binding, 665/545 ratio; series mostly up to 57.5 µM
# In short: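 TR-FRET readout: Ex 340 nm, 665/545 nm emission ratio, normalized to buffer-only (basal) and MBNL1-(CUG)12 controls. Complex of MBNL1-His with Biotin-(CUG)12, compounds 92 nM–58 uM, incubated 60 min at room temperature.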
# Potency is the fitted concentration of half-maximal effect; tags give direction and shape of the fitted curve or compound fluorescence and quenching.
# UniProt Q9NR56, sequence (Q9NR56 whole entry, looked up): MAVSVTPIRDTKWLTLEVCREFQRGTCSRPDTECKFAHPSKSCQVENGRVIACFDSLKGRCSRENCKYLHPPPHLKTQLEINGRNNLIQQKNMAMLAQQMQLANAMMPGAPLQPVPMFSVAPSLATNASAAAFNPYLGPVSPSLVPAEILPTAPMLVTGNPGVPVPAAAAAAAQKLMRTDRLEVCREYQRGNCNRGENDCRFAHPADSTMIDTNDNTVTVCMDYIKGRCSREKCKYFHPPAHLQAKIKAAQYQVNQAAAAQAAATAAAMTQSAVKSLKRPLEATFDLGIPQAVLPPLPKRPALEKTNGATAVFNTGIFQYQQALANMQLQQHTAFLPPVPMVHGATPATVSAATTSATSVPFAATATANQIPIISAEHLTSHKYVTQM
row,SMILES,Potency
1,COc1cccc2c3c(c(C)nc12)CCN3c1ccccc1,"inconclusive: 14.1 µM [quencher, side channel, partial curve]"
2,Cn1c(=O)c(-c2ccccc2N)nc2ccccc21,"inconclusive: 20 µM [quencher, side channel, partial curve]"
3,CCOc1ccc(CN2CCNC(=O)C2CC(=O)NCc2cc(C)n(C)n2)cc1 (centres undefined),inactive
4,C#CCOCCOCCOCCNc1nc(N2CCN(C(=O)[C@H]([C@@H](C)O)n3cc(CCCCN)nn3)CC2)nc(N2CCN(C(=O)[C@H](Cc3ccc(O)cc3)n3cc(CCO)nn3)CC2)n1,"inconclusive: 79.4 µM [inhibitor, single point]"
5,N#Cc1c(-c2ccccc2)nc(SCC(=O)N(c2ccccc2)c2ccccc2)[nH]c1=O,"inconclusive: 0.282 µM [fluorescent, side channel, partial curve]"
6,O=C(NC1CCCC1)c1cc(Cl)ccc1[N+](=O)[O-],"inconclusive: 25.1 µM [quencher, side channel, single point]"
7,C=CCOc1c(Br)cc(CNc2ccc(NC(=O)C(C)C)cc2)cc1OCC,"inconclusive: 0.316 µM [fluorescent, side channel, full curve]"
8,CCCCOc1ccc(Cc2c(COCC)[nH]c(=S)[nH]c2=O)cc1,inactive
9,Cc1cc(N(C)C)ccc1N=Nc1ccc2ncccc2c1,"inconclusive: 17.8 µM [quencher, partial curve]"
10,CCOC1=C/C(=C/c2c(N)n3nc(CC(=O)N4CCCC4)sc3nc2=O)C=CC1=O,"inconclusive: 31.6 µM [quencher, side channel, single point]"
11,O=C1NCCc2c1[nH]c1ccccc21,"inconclusive: 7.08 µM [fluorescent, side channel, single point]"
12,O=C(CSc1nc2ccc(NC(=O)CSc3nnnn3-c3ccccc3)cc2s1)Nc1ccccc1,"inconclusive: 0.0501 µM [fluorescent, side channel, full curve]"
13,CC(=O)c1ccc(Sc2ccccn2)c([N+](=O)[O-])c1,"inconclusive: 15.8 µM [quencher, side channel, partial curve]"
14,CCn1c(C(=O)N2CCCC(C(=O)NCCc3ccc(C)cc3)C2)cc2sccc21 (centres undefined),inactive
15,Cc1ccc(CN2CCN(/N=C/c3ccc(O)c(O)c3)CC2)cc1,inactive
16,O=C(NNC(=S)NC(=O)c1cccc([N+](=O)[O-])c1)c1ccc(O)cc1,"inconclusive: 15.8 µM [quencher, side channel, partial curve]"
17,Cc1nc2nc(SCC(=O)c3cccc([N+](=O)[O-])c3)[nH]c2cc1Br,"inconclusive: 14.1 µM [quencher, side channel, partial curve, poor fit]"
18,CCC(Oc1ccccc1)C(=O)Nc1nnc(C(F)(F)F)s1 (centres undefined),"inconclusive: 44.7 µM [quencher, side channel, single point]"
19,COc1ccccc1C1=NC(c2ccccc2)CN1c1ccccc1 (centres undefined),inactive
20,O=C(N/C(=C/c1ccco1)C(=O)N1CCOCC1)c1ccc([N+](=O)[O-])cc1,"inconclusive: 10 µM [quencher, side channel, partial curve]"

row,SMILES,Potency
1,COc1ccc2nc(C)cc(Nc3ccc(N4CCN(C)CC4)cc3)c2c1,"inconclusive: 14.1 µM [quencher, side channel, partial curve]"
2,CC(C)CCn1c(-c2nonc2N)nc2ccccc21,inactive
3,COc1ccc2nc(SCC(=O)N3CCCCCC3)c(C#N)cc2c1,"inconclusive: 14.1 µM [quencher, side channel, partial curve]"
4,COc1cc(-c2nc3ccccn3c2/N=C/c2ccccc2)ccc1O,"inconclusive: 14.1 µM [quencher, side channel, partial curve]"
5,O=C(CCN1C(=O)/C(=C/c2ccco2)SC1=S)Nc1ccc(C(=O)O)c(O)c1,"inconclusive: 25.1 µM [quencher, side channel, partial curve]"
6,O=C(CN1C(=O)c2cccc3cccc1c23)NC1CCCC1,"inconclusive: 31.6 µM [quencher, side channel, single point]"
7,Cc1ccc(Sc2ccc(/C=N/O)cc2[N+](=O)[O-])cc1,"inconclusive: 17.8 µM [quencher, side channel, partial curve]"
8,CC1CCCCC1NCC(=O)Nc1ccccc1-c1ccccc1 (centres undefined),"inconclusive: 50.1 µM [inhibitor, single point]"
9,COc1ccccc1Nc1nc2ccccc2n1C,"inconclusive: 1.78 µM [fluorescent, side channel, partial curve]"
10,COc1cc(/C=N/N2CCN(C3c4ccccc4-c4ccccc43)CC2)ccc1O,"inconclusive: 8.91 µM [quencher, side channel, single point]"
11,CC[n+]1c(C)cc2c(sc3ccccc32)c1C,"inconclusive: 39.8 µM [quencher, side channel, single point]"
12,Cc1ccc2cc3cc(C(=O)NCCN4CCOCC4)oc3nc2c1,"inconclusive: 14.1 µM [quencher, partial curve]"
13,CCN1CCN(CC(=O)Nc2ccc(C(C)=O)cc2)CC1,"inconclusive: 2.51 µM [quencher, side channel, full curve, poor fit]"
14,CCN(C(=O)COC(=O)CSc1ccc([N+](=O)[O-])cc1)C1CCS(=O)(=O)C1 (centres undefined),"inconclusive: 20 µM [quencher, side channel, partial curve]"
15,COc1ccc(NC(=O)CSc2nnc(N)s2)c([N+](=O)[O-])c1,"inconclusive: 14.1 µM [quencher, side channel, partial curve]"
16,OCC1(CCc2ccccc2)CCN(Cc2ccc3nsnc3c2)CC1,"inconclusive: 31.6 µM [quencher, side channel, single point]"
17,NC(=O)CC(NC(=O)c1ccccc1)c1ccc(NCC2CC2)c([N+](=O)[O-])c1 (centres undefined),"inconclusive: 3.55 µM [quencher, side channel, full curve]"
18,CNc1ccc(/C=C2\CSc3ccccc3C2=O)cc1[N+](=O)[O-],"inconclusive: 7.94 µM [quencher, side channel, partial curve]"
19,Cc1cccc(N(C)S(=O)(=O)c2cccc3nsnc23)c1,"inconclusive: 14.1 µM [quencher, side channel, partial curve]"
20,Cc1cc(Br)ccc1NC(=O)CNC(=O)CN(C)Cc1nc2ccccc2c(=O)[nH]1,inactive

row,SMILES,Potency
1,COc1ccc(NC(=O)CSCc2ccc([N+](=O)[O-])cc2)cc1OC,"inconclusive: 17.8 µM [quencher, side channel, partial curve]"
2,Cc1cnc(NC(=O)CCCSc2nc3ccccc3s2)s1,"inconclusive: 39.8 µM [fluorescent, side channel, single point]"
3,O=C(c1ccc2c3n(nc2c1)-c1ccccc1CO3)N1CCOCC1,"inconclusive: 31.6 µM [quencher, single point]"
4,COc1ccc(C(NC(C)=O)c2cc(Cl)c3cccnc3c2O)cc1OC (centres undefined),inactive
5,COc1cccc(C2C(C#N)=C(N)Oc3c2oc(CO)cc3=O)c1OC (centres undefined),"inconclusive: 39.8 µM [quencher, side channel, single point]"
6,COc1cc(/C=C/CN2CCN(Cc3ccc(C)o3)C(CCO)C2)ccc1O (centres undefined),inactive
7,CC(=O)Nc1ccc(C(=O)OCc2ccccc2Cl)cc1,"inconclusive: 0.112 µM [fluorescent, side channel, partial curve]"
8,CC(C)COC(=O)Nc1nnc(Cc2ccccc2)s1,"inconclusive: 20 µM [quencher, side channel, partial curve]"
9,COc1ccc(N2CCN(C(=O)c3ccc(Br)cc3)CC2)c([N+](=O)[O-])c1,"inconclusive: 14.1 µM [quencher, side channel, partial curve]"
10,Cc1ccc(CNS(=O)(=O)c2cccc3nsnc23)cc1,"inconclusive: 25.1 µM [quencher, side channel, partial curve]"
11,COc1ccc(-c2ccnc3c(C(=O)O)cnn23)cc1,"inconclusive: 25.1 µM [quencher, side channel, partial curve]"
12,Cc1ccccc1-c1ccc(C=Nc2c(C)n(C)n(-c3ccccc3)c2=O)o1,"inconclusive: 14.1 µM [quencher, partial curve]"
13,CCOC(=O)CSc1[nH]c2cc(OC)ccc2c1[N+](=O)[O-],"inconclusive: 17.8 µM [quencher, partial curve]"
14,CN1CC=C2C(C#N)=C(N)C(C#N)(C#N)C(Cc3ccccc3)C2C1 (centres undefined),"inconclusive: 8.91 µM [quencher, side channel, full curve]"
15,COC(=O)c1ccc(NC(=S)NNC(=O)c2ccccc2)cc1,inactive
16,CC1CCN(c2ccccc2NC(=S)NC(=O)c2ccc(-c3cccc([N+](=O)[O-])c3)o2)CC1,inactive
17,CCC1(C)Cc2c(sc3nnn(CC(=O)Nc4ccccc4)c(=O)c23)CO1 (centres undefined),"inconclusive: 22.4 µM [quencher, side channel, partial curve]"
18,N#Cc1ncc(-c2ccc3c(c2)OCCOCCOCCOCCOCCO3)nc1C#N,"inconclusive: 25.1 µM [quencher, side channel, partial curve]"
19,O=c1[nH]c(C2CCN(S(=O)(=O)c3cccc([N+](=O)[O-])c3)CC2)nc2c1nnn2Cc1ccccc1,inactive
